Test results published in PubChem BioAssay AID1508623 (National Center for Advancing Translational Sciences (NCATS), 2021).
The campaign covered roughly 48,000 compounds. About 450 (0.94%) were called active. Inconclusive results (about 19%) are left out. The call rests on the fitted dose curve; in most records, active means well fitted inhibition curve with a large enough effect; inconclusive means small, poorly fitted or top-dose-only effect; inactive means no such curve, though single readings can be large or run the other way. Some of the results follow.

Experiment: Primary qHTS for Identification of Small Molecule Inhibitors of Huntingtin Promoter Activity; further: nearly all actives have a fitted effect of over 50% in size
Settings: HEK293 HTT promoter firefly luciferase reporter (activity 0% = vehicle and -100% = no light), 24 h; series mostly up to 57.5 µM; activity change, negative = inhibition: at the top concentration
Source text: Assay Provider: Russell L. Margolis M.D.
Department Neurology, Johns Hopkins University School of Medicine, Baltimore, MD
Huntington's Disease (HD) is a neurodegenerative disorder caused by a CAG repeat expansion in exon 1 of huntingtin (HTT). While there are currently no disease-modifying treatments for HD, recent efforts have focused on development of nucleotide-based therapeutics to lower HTT expression. As an alternative to siRNA or oligonucleotide methods, we hypothesized that suppression of HTT expression might be accomplished by small molecules that either (1) directly decrease HTT expression by suppressing HTT promoter activity or (2) indirectly decrease HTT expression by increasing the promoter activity of HTT-AS, the gene antisense to HTT that appears to inhibit expression of HTT.
We developed and employed a high throughput screen for modifiers of HTT and HTT-AS promoter activity using luminescent reporter HEK293 cells; of the 52,041 compounds tested, we identified 898 replicable hits. We used a rigorous stepwise approach to assess compound toxicity and the capacity of the compounds to specifically lower huntingtin protein in 5 different cell lines, including HEK293 cells, HD lymphoblastoid cells, mouse primary neurons, HD iPSCs differentiated into cortical-like neurons, and HD hESCs. We found no compounds which were able to lower huntingtin without lowering cell viability in all assays, though the potential efficacy of a few compounds at non-toxic doses could not be excluded.
SEQUENCE No. (1, 2, 3, etc.); […] (e.g., Cells, Incubation, Reagent, etc.); VALUE and DESCRIPTION.
1; Reagent; 4 uL; 2,500 Hek293 luciferase reporter cells per wells
3; Compound; 23 nL; Control inhibitor / compound library
5; Reagent; 2.5 uL; Firefly Luc reagent; Dual-Glo Luciferase Reporter Assay System (Promega)
6; Time; 10 min; room temperature incubation
7; Detection; Luminescence; FLuc
NOTES (numbers refer to sequence above)
1; High-throughput screening, measuring luminescence from a Hek293 luciferase reporter, was performed in 1,536 well white-walled tissue-culture treated plates. 2,500 cells were plated in 4 µL of Opti-MEM per well using a Multidrop Combi Reagent Dispenser (ThermoFisher).
2; Assay plates were cultured for 24 hours.
3; Control inhibitor (PTC124; final concentration of 50 uM) and compound library (at final concentrations of 460 nM - 57.5 uM) were added to the assay plate using the Kalypsis Pintool Robotic System equipped with 1536 pinheads.
4; Cells were then incubated for 24 hours at 37 degrees C prior to luminescence measurements.
5; In all cases, luminescence was measured using the Dual-Glo Luciferase Reporter Assay System (Promega) following the manufacturer's instructions.
6; Room temperature incubation.
7; Luminescence signal was obtained using the PerkinElmer ViewLux plate reader. Results were normalized to vehicle control (0% activity) and zero RLU (-100% activity).

| SMILES | activity change, negative = inhibition |
| --- | --- |
| CCOC(=O)c1ccc(NC(=O)CC2NCCNC2=O)cc1 (stereo not drawn) | inactive: 15.1% |
| CCn1c2ccccc2c2cc(NC(=O)COc3ccc(C)c(C)c3)ccc21 | inactive: 0.422% |
| CCOC(=O)C1CCN(S(=O)(=O)c2ccc3c(c2)NC(=O)C(C)C(=O)N3)CC1 (stereo not drawn) | inactive: -14.2% |
| N#Cc1cccc(NC(=O)C2CCN(c3ncccn3)CC2)c1 | inactive: 3.8% |
| CCOc1cc(C(=O)Nc2ccc(-c3nc4ncccc4o3)cc2C)cc(OCC)c1OCC | inactive: -15.6% |
| CCS(=O)(=O)CCSc1nc(-c2ccc(Br)cc2)cc(-c2ccccc2)c1C#N | inactive: -4.85% |
| CC1=C(C(=O)Nc2ccccc2C)C(c2cccnc2)n2nc(SCc3ccccc3F)nc2N1 (stereo not drawn) | inactive: -7.35% |
| O=C(O)CCc1ccc(-c2ccccc2)n1CC(=O)Nc1ccccc1C(F)(F)F | inactive: -10.6% |
| COc1ccc2c(c1)c1c(c(=O)n(-c3ccccc3C)c(=O)n1CC(=O)Nc1c(C)cccc1C)n2C | inactive: -13.6% |
| Cc1ccccc1Nc1nn2c(=O)c3ccc(C(=O)N4CCCC(C)C4)cc3nc2s1 (stereo not drawn) | inactive: -10.3% |
| O=c1c2[nH]c3ccccc3c2nc(SCc2cccc(F)c2)n1-c1ccccc1 | inactive: -14.7% |
| Cc1ccc(NC(=O)CCC(=O)N2Cc3ccccc3Oc3ncccc32)cc1 | inactive: -0.978% |
| COc1ccc(NC(=O)Cn2c(SCc3ccc(C)cc3)nc3cccnc32)c(OC)c1 | inactive: -27.9% |
| O=C(CCc1ccccc1)NC1CC(=O)N(c2ccccc2)C1 (stereo not drawn) | inactive: -18.5% |
| COc1cccc(OC)c1C(=O)Nc1ccc2c(c1)N(C(C)=O)CCC2 | inactive: -18.9% |
| CCOc1ccc(CNS(=O)(=O)c2cc(-c3cc(C)no3)ccc2C)cc1OC | inactive: -28.6% |
| CC(C)(C)c1ccc(C(=O)CCCN2CCC(OC(c3ccccc3)c3ccccc3)CC2)cc1 | inactive: 3.64% |
| COc1ccc(-c2cnc(C)o2)cc1S(=O)(=O)Nc1ccc(C)c(N(C)C)c1 | inactive: -19.4% |
| Cn1c(=O)[nH]c2cc(-c3noc(-c4ccc(F)cc4)n3)ccc21 | inactive: 45.6% |
| CCn1c(=O)cc(SCC(=O)NCCc2ccc(OC)cc2OC)c2ccccc21 | inactive: -11.5% |
| COCCCNC(=O)CSc1nc(-c2ccccc2)[nH]c1-c1ccc(C)cc1 | inactive: -24.5% |
| CCc1ccc(-n2c(=O)c3c4c(sc3n(CC(=O)NC(C)CC)c2=O)CCCC4)cc1 (stereo not drawn) | inactive: -9.02% |
| CCc1cnc2c(c1SCC(=O)Nc1ccc(C)cc1C)c(=O)n(C)c(=O)n2C | inactive: -2.9% |
| CCCn1c(=O)c2sccc2n2c(CCCC(=O)Nc3cccc(CC)c3)nnc12 | inactive: -15.6% |

| SMILES | activity change, negative = inhibition |
| --- | --- |
| CCc1ccc(-c2nn(CC(=O)NC3CCCCC3)c3c2cnc2ccc(OC)cc23)cc1 | inactive: 14.5% |
| Cc1ccc(Cl)cc1NC(=O)C(=O)NCCc1sc(-c2ccc(F)cc2)nc1C | inactive: -15.5% |
| COc1ccc(CC(=O)Nc2sc3c(c2C(=O)Nc2c(C)cccc2C)CCCCC3)cc1 | inactive: -9.58% |
| COc1ccc(NC(=O)CSC2=Nc3ccccc3C3=NC(CC(=O)NCc4ccc(F)cc4)C(=O)N23)cc1 (stereo not drawn) | inactive: -18.8% |
| CCCOc1ccc(C(=O)Nc2c(C(=O)c3ccc(C)cc3)oc3ccccc23)cc1 | inactive: -4.29% |
| COc1ccc(CNC(=O)Cn2c(=O)oc3cc(S(=O)(=O)N4CCCC4)ccc32)cc1 | inactive: -16.9% |
| Cc1cccc(S(=O)(=O)c2cn(Cc3ccccc3)c3cc(N4CCCCC4C)c(F)cc3c2=O)c1 (stereo not drawn) | inactive: -32.3% |
| CCCCc1ccc(C(=O)N/C(=C\c2ccc(C)cc2)C(=O)NC2CCCCC2)cc1 | inactive: 2.69% |
| Cc1cc(C(F)F)n2nc(C(=O)Nc3ccc(F)c(Cl)c3)nc2n1 | inactive: 5.69% |
| CCc1nc2ccc(C(=O)N3CCN(c4ccc(Cl)cc4)CC3)cc2nc1CC | inactive: -13.9% |
| COc1cccc(Nc2nc(-c3ccccc3)c3cc(C)ccc3n2)c1 | inactive: -21.8% |
| Cc1cccc(CNC(=O)c2ccc(Cn3c(=O)c4cccn4c4cccnc43)cc2)c1 | inactive: -0.684% |
| C[C@H](Cn1cnc2c(N)ncnc21)OCP(=O)(O)O | inactive: -19% |
| O=C(CC1N=C2c3ccccc3N=C(SCc3ccccc3F)N2C1=O)NCc1cccs1 (stereo not drawn) | inactive: 30.4% |
| CCCCNc1cc(C(=O)O)cc(S(N)(=O)=O)c1Oc1ccccc1 | inactive |
| COc1cc(C2CC(=O)Nc3c2c(=O)nc2c(C)cccn32)cc(OC)c1OC (stereo not drawn) | inactive: -3.93% |
| Cc1nn2c(-c3cccc(NC(=O)c4ccc(Cl)cc4)c3)nnc2c2ccccc12 | inactive: 0.922% |
| CCS(=O)(=O)N1CCc2cc(C(=O)Nc3cc(Cl)ccc3C)ccc21 | inactive: -15.4% |
| CCOC(=O)c1c(C)[nH]c(CCC(=O)Nc2ccccc2C(=O)OC)c1C | inactive: 1.55% |
| CC(C)C(=O)Nc1ccc2nc(SCCOc3ccccc3)sc2c1 | inactive: 10.3% |
| COc1ccc(CCNC(=O)CCS(=O)(=O)c2ccc3c(c2)oc(=O)n3C)cc1OC | inactive: 31.9% [at 11.5 µM] |
| Cc1ccc(N2CCN(C(=O)c3cn(C)c4ccc(S(=O)(=O)N(C)C5CCCCC5)cc4c3=O)CC2C)cc1 (stereo not drawn) | inactive: -17.3% [at 11.5 µM] |
| O=C(Nc1ccc2nn(-c3ccccc3)nc2c1)c1ccc(-c2cccc(Cl)c2)o1 | inactive: 39.1% |
| CCOC(=O)[C@H](CCc1ccccc1)N[C@@H](C)C(=O)N(CC(=O)O)C1Cc2ccccc2C1 | inactive: -7.58% |
